In article PMC3737525, “Structural and mechanistic basis of anti-termination of Rho-dependent transcription termination by bacteriophage P4 capsid protein Psu” (Nucleic Acids Research, 2013):
Residue numbers refer to the chain shown, from its start. No constants are given. Whether binding was seen depends on the method and setting. In cells and extracts the contact can be indirect. Some binding calls cover weakened binding; strength is not graded here. For part of these data: Tags and fused reporters may be left off the sequences shown. Blank lines part the entries; values can stand above or below the substance they belong to.

Chains of the proteins cited; added tags and fusions are not shown. Lines headed by an entry give the natural chain unless they say otherwise; changes in a name come on top.
UniProt P0AG30: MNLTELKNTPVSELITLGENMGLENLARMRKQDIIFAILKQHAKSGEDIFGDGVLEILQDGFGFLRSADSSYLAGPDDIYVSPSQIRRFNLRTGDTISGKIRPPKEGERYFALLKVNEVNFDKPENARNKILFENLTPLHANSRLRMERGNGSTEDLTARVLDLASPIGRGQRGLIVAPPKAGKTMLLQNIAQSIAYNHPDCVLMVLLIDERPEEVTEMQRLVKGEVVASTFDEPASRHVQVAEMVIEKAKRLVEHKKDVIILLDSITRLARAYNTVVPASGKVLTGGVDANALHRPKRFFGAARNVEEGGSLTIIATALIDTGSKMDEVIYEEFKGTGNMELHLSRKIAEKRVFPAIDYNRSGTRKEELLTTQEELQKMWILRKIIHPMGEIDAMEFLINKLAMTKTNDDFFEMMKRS

Columns and labels:
[1] = target: T1, E56K Psu, His-tagged at the N-terminus (bacteriophage P4) (UniProt P05460); test: pull-down; in vivo pull-down: N-terminally His-tagged Psu and untagged Rho co-overexpressed in BL21 (DE3); lysate (100 mM NaH2PO4, 100 mM NaCl, 10 mM imidazole) passed through Ni-NTA, washed with 20 mM imidazole, eluted with 500 mM imidazole; fractions on SDS-PAGE
T1 sequence: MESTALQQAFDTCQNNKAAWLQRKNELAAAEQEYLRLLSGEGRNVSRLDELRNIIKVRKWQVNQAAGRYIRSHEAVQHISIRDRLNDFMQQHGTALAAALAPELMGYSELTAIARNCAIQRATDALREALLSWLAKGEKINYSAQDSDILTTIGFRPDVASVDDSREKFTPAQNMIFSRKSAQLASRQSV

[2] = target: T2, F169V Psu, His-tagged at the N-terminus (bacteriophage P4) (UniProt P05460); test: as above
T2 sequence: T1 sequence with K56E, F169V

[3] = target: T3, R166C Psu, His-tagged at the N-terminus (bacteriophage P4) (UniProt P05460); test: as above
T3 sequence: T1 sequence with K56E, R166C

[4] = target: WT Psu, His-tagged at the N-terminus (bacteriophage P4) (UniProt P05460); test: as above
[5] = target: T4, Psu single cysteine derivative S161C (bacteriophage P4) (UniProt P05460); test: pull-down; pull-down assays of the single Cys derivatives (Supplementary Figure S3A and B); format not shown
T4 sequence: T1 sequence with C13S, K56E, C117S, S161C

[6] = target: T5, Psu single cysteine derivative S181C (bacteriophage P4) (UniProt P05460); test: as above
T5 sequence: T1 sequence with C13S, K56E, C117S, S181C

[7] = target: Psu single cysteine derivative S80C (bacteriophage P4) (UniProt P05460); test: as above
[8] = target: WT Psu, His-tagged at the N-terminus (bacteriophage P4) (UniProt P05460); test: as above

binding [1]: no binding
binding [2]: no binding
binding [3]: no binding
binding [4]: binds
Substance: WT Rho (from UniProt P0AG30 1-419)

binding [5]: binds
binding [6]: binds
binding [7]: binds
binding [8]: binds
binding [1]: no binding
binding [2]: binds
binding [3]: binds
binding [4]: binds
Substance: P167L Rho (from UniProt P0AG30 1-419)

binding [4]: binds
Substance: K352A Rho (from UniProt P0AG30 1-419)

binding [4]: no binding
Substance: E148R Rho (from UniProt P0AG30 1-419)

binding [4]: binds
Substance: V354N Rho (from UniProt P0AG30 1-419)

binding [8]: binds
Substance: Single Cys derivative S346C of P167L Rho (from UniProt P0AG30 1-419)

binding [4]: no binding
Substance: R144E Rho (from UniProt P0AG30 1-419)

binding [1]: no binding
binding [2]: binds
binding [3]: binds
binding [4]: binds
Substance: N151D Rho (from UniProt P0AG30 1-419)

binding [8]: binds
Substance: Single Cys derivative L204C of P167L Rho (from UniProt P0AG30 1-419)

binding [4]: binds
Substance: Δ(149–153) Rho (from UniProt P0AG30 1-419)

binding [4]: no binding
Substance: R146E Rho (from UniProt P0AG30 1-419)

binding [4]: binds
Substance: R149E Rho (from UniProt P0AG30 1-419)

binding [4]: binds
Substance: Δ(144–148) Rho (from UniProt P0AG30 1-419)

binding [8]: binds
Substance: Single Cys derivative S153C of P167L Rho (from UniProt P0AG30 1-419)
